Measured values published in the supplement of paper PMC4604168 (melanoma cell lines).
Some of the results follow. Repeats are few or missing, and single values can be far off.

Columns and labels:
Assay in all cases: cell count relative to DMSO control; melanoma cells; higher = more viable cells
Conditions in all cases: library dose: low library concentration; 72 h
WM115 = tested on: WM115
WM1716 = tested on: WM1716
WM1745 = tested on: WM1745
WM3526 = tested on: WM3526
WM3619 = tested on: WM3619
WM451Lu = tested on: WM451Lu
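Also: cell number obtained by counting DAPI-stained nuclei in high-throughput microscope images with image analysis software, screen run in 1,536-well plates.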

Cc1cc(Nc2cc(N3CCN(C)CC3)nc(/C=C/c3ccccc3)n2)n[nH]1 + c1cc(-c2cnn3cc(-c4ccc(OCCN5CCCCC5)cc4)cnc23)ccn1 [Dorsomorphin] (first compound 0.04 µM, partner dose 0.4 µM)
cell count (WM115): 101%
cell count (WM1716): 111%
cell count (WM1745): 85.5%
cell count (WM3526): 106%
cell count (WM3619): 138%
cell count (WM451Lu): 97.9%

Cc1cn(-c2cc(NC(=O)c3ccc(C)c(Nc4nccc(-c5cccnc5)n4)c3)cc(C(F)(F)F)c2)cn1 [nilotinib] + OCc1c[nH]c2ccccc12 [Indole-3-carbinol] (first compound 0.2 µM, partner dose 0.8 µM)
cell count (WM115): 121%
cell count (WM1716): 106%
cell count (WM1745): 84.6%
cell count (WM3526): 111%
cell count (WM3619): 94%
cell count (WM451Lu): 112%

COc1ccc(C2=N[C@@H](c3ccc(Cl)cc3)[C@@H](c3ccc(Cl)cc3)N2C(=O)N2CCNC(=O)C2)c(OC(C)C)c1 [Nutlin-3] + COc1ccc(COc2ccc(Cc3cnc(N)nc3N)cc2OC)cc1 [GW2580] (first compound 0.1 µM, partner dose 1 µM)
cell count (WM115): 86.2%
cell count (WM1716): 89.1%
cell count (WM1745): 73.3%
cell count (WM3526): 80%
cell count (WM3619): 95.4%
cell count (WM451Lu): 89.2%

Cc1cc(Nc2cc(N3CCN(C)CC3)nc(/C=C/c3ccccc3)n2)n[nH]1 + COc1ccc(-c2ccc3c(N4CCOCC4)nc(N4C[C@@H](C)O[C@@H](C)C4)nc3n2)cc1CO [KU0063794] (first compound 0.04 µM, partner dose 0.02 µM)
cell count (WM115): 88.7%
cell count (WM1716): 88.4%
cell count (WM1745): 87.6%
cell count (WM3526): 92.7%
cell count (WM3619): 82.6%
cell count (WM451Lu): 106%

CC(C)C[C@H](NC(=O)[C@H](Cc1ccccc1)NC(=O)c1cnccn1)B(O)O [Bortezomib] + O=C(O)C(=O)Nc1sc2c(c1C(=O)O)CCNC2 [TCS401] (first compound 0.001 µM, partner dose 1.66667 µM)
cell count (WM115): 96.9%
cell count (WM1716): 40.3%
cell count (WM1745): 69.4%
cell count (WM3526): 80.6%
cell count (WM3619): 23.2%
cell count (WM451Lu): 92.2%
